About 540 (0.36%) of roughly 150,000 compounds showed an effect of 50% or more. Some of the results follow.
system: Plasmodium falciparum; assay: Primary screen in NF54 nanoGlo assay, in single point, at 2uM, 72h; a lower Z score goes with more inhibition; assay type: functional, Erythrocyte; settings: timepoint 72 hour

SMILES | % Inhibition [%] | Z score
COCc1cc(Cl)ccc1NC(=O)N[C@H]1CCO[C@@H]1c1ccncc1 | -6 | 1.11
O=C(CCCCc1nc2ccccc2s1)N1CCOCC1 | 34 | -3.9
NC(=O)c1ccc(NC(=O)[C@H](Cc2ccccc2)NC(=O)N2CCCC2)cc1 | 3 | -0.33
CCCOC(=O)c1cc(-c2cncnc2)ccc1N | -10 | 1.82
CCc1ccc(-c2nc3oc(-c4ccccc4)nc3c(=O)[nH]2)cc1 | 2 | -0.29
CC(C)(C)OC(=O)N1CCC[C@@](O)(C2(C(=O)NCC#N)CCC2)C1 | -5 | 0.97
CCOC(=O)CCN1CC(C)CC(C)C1 (stereo not drawn) | 6 | -0.74
Cc1noc([C@]23CN(Cc4cccnc4)CC[C@H]2CN(Cc2ccccc2)C3)n1 | -1 | 0.08
CCn1ncc2c1NC(=O)C[C@@H]2c1ccccc1Cn1cccn1 | -6 | 1.12
COc1nc(NC2CCS(=O)(=O)CC2)ncc1F | 65 | -7.11
Cc1noc(CCCNC(=O)N2CC(c3ccccc3)C3COCCC32)n1 (stereo not drawn) | -16 | 2.66
CCCS(=O)(=O)C(C)C(=O)NCC(C)(O)c1ccc(F)cc1F (stereo not drawn) | 15 | -1.83
c1coc([C@@H]2CCCN2CCn2cnc3ccccc32)c1 | 3 | -0.43
C[C@@H](c1cc(-c2ccccc2)[nH]n1)N(C)C(=O)NC1(C2CC2)CC1 | -15 | 1.61
CC(C)(C)c1ccc(S(=O)(=O)N2CCC[C@H](n3cncn3)C2)cc1 | -9 | 1.22
COc1nccnc1N1CCC2(CC1)OCCC[C@@H]2OC | -12 | 2.62
Cc1sc(-c2ccccc2F)nc1C(=O)Nc1ccc2c(c1)OCO2 | 0 | -0.03
Cn1nc(C(F)(F)F)c(C#N)c1OC(=O)c1c(F)cccc1F | -6 | 0.68
Cc1noc(C)c1S(=O)(=O)N1CCc2cc(Br)ccc2C1 | -9 | 0.88
CCN1C[C@H](NC(=O)C2(N3CCCC3)CCCCC2)[C@@H](OC)C1 | 10 | -1.88
Cc1cc(-c2ccc(C(=O)N3CCC[C@](C)(O)CC3)cc2)c2ccccc2n1 | 3 | -0.55
CC[C@H]1CCN(C(=O)C2CCN(c3ccc(C)cn3)CC2)C1 | -12 | 2.48
CNC(=O)N1C[C@@H](CN(C)C)[C@H](NC(=O)c2cc(C)cc(C)c2)C1 | -14 | 2.2
CCc1ccccc1CC(=O)N1CC[C@](CO)(COC)C1 | -17 | 1.69
